# Test results taken from the BET-seq Pho4 binding data (Le et al. 2018).
# The list shows a part of the results. The energies were worked out here from pooled read counts, against the library average; single values are noisy.
# Target: T1, Pho4 (S. cerevisiae) (UniProt P07270)
# T1 sequence: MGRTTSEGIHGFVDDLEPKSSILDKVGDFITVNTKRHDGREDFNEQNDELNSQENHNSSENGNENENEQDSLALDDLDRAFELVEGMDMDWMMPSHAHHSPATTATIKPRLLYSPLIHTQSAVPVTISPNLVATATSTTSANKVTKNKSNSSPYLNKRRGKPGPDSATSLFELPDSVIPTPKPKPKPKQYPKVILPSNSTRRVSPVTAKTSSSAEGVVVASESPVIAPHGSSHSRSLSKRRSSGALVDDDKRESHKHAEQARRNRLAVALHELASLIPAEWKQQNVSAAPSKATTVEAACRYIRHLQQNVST
# Assay: relative binding free energy (BET-seq); higher = weaker binding
# Conditions: reference: library average
row,Sequence,relative binding free energy
1,GGGTTCACGTGTCGGT,0.46 kcal/mol
2,GAGATCACGTGTTTGA,0.14 kcal/mol
3,TTTGCCACGTGATTTT,0.24 kcal/mol
4,ATACGCACGTGGTGAG,-0.16 kcal/mol
5,TATGTCACGTGTCCGG,-0.01 kcal/mol
6,AGTGGCACGTGGTGCG,-0.19 kcal/mol
7,GGGGACACGTGTCTGG,0 kcal/mol
8,GGGTTCACGTGGCTCG,0.39 kcal/mol
9,GATTACACGTGGTTTG,0.12 kcal/mol
10,TTTTGCACGTGCCGGG,0.01 kcal/mol
11,AGTTCCACGTGTTTTG,-0.04 kcal/mol
12,GAATACACGTGGTGTA,0.06 kcal/mol
13,ATGGTCACGTGCGTAG,0.08 kcal/mol
14,GGGTCCACGTGTGTAT,0.02 kcal/mol
15,AAGGGCACGTGGGGGT,-0.16 kcal/mol
16,AGTAGCACGTGTGTAA,0 kcal/mol
17,ATGAACACGTGGGGAG,-0.01 kcal/mol
18,TATGGCACGTGAGAAG,0.25 kcal/mol
19,GCGGTCACGTGAGATG,0.35 kcal/mol
20,AGATGCACGTGTTAGT,-0.12 kcal/mol
21,TACGGCACGTGAATTT,0.25 kcal/mol
22,TGGGACACGTGCTGAG,0.09 kcal/mol
23,TAGTTCACGTGAGTAA,0.3 kcal/mol

row,Sequence,relative binding free energy
1,ATGGTCACGTGGCGAT,0.02 kcal/mol
2,TTAATCACGTGTTGTG,-0.01 kcal/mol
3,TGGATCACGTGGTCTT,0.15 kcal/mol
4,TTGGACACGTGTTGCA,0 kcal/mol
5,GTTACCACGTGGTTTT,0.03 kcal/mol
6,AGTAGCACGTGGTTTG,-0.15 kcal/mol
7,CGGGTCACGTGGATGG,0.06 kcal/mol
8,GTGATCACGTGAAGTA,0.27 kcal/mol
9,CTGCGCACGTGGTCGG,-0.21 kcal/mol
10,GTCTACACGTGGGGAT,0.1 kcal/mol
11,TGGGGCACGTGTTCTC,-0.07 kcal/mol
12,GTAGCCACGTGGAGGA,0.07 kcal/mol
13,ATGGTCACGTGCTTGG,0.09 kcal/mol
14,GCTTACACGTGGTAGT,0.09 kcal/mol
15,GGGTACACGTGGCATG,0.08 kcal/mol
16,AAGTTCACGTGGTGGC,0.17 kcal/mol
17,GTTTTCACGTGAGCTG,0.37 kcal/mol
18,CTATGCACGTGGGGAG,-0.21 kcal/mol
19,TTGTGCACGTGGCTTT,-0.04 kcal/mol
20,TAACGCACGTGGTGTG,-0.28 kcal/mol
21,AGTTGCACGTGGGATG,-0.16 kcal/mol
22,ACTAGCACGTGAGGTT,0.24 kcal/mol
23,AGATGCACGTGTATAT,0.08 kcal/mol

row,Sequence,relative binding free energy
1,TGTTGCACGTGGGGCT,-0.14 kcal/mol
2,CGTTTCACGTGAGGTG,0.44 kcal/mol
3,CTTGGCACGTGAAGTG,0.24 kcal/mol
4,AGGCTCACGTGCGGGG,0.14 kcal/mol
5,TATAACACGTGTTAGG,0.01 kcal/mol
6,ATTGACACGTGATTAG,0.27 kcal/mol
7,CGTTTCACGTGTGGAG,0.16 kcal/mol
8,CGTTACACGTGTATTT,0 kcal/mol
9,TAGGGCACGTGCTGGA,-0.34 kcal/mol
10,GAGTCCACGTGATGTT,0.28 kcal/mol
11,GTTAACACGTGAAATG,0.33 kcal/mol
12,TGTCTCACGTGTGCTT,0.21 kcal/mol
13,GTGATCACGTGCGGTA,0.11 kcal/mol
14,ATGAGCACGTGGCGCG,-0.2 kcal/mol
15,GAGTGCACGTGTATTA,-0.01 kcal/mol
16,AATTTCACGTGTCTAT,0.27 kcal/mol
17,GTGGTCACGTGTTACT,0.12 kcal/mol
18,GAGTCCACGTGGGTGT,-0.09 kcal/mol
19,TTGCTCACGTGGTTAA,0.21 kcal/mol
20,GAGGCCACGTGTGGTA,0.15 kcal/mol
21,CGGGACACGTGGGGAG,-0.13 kcal/mol
22,GTATGCACGTGGTGCT,-0.12 kcal/mol
23,GGTGTCACGTGAGACT,0.13 kcal/mol

row,Sequence,relative binding free energy
1,TGTCACACGTGAATTG,0.33 kcal/mol
2,AATTGCACGTGGAGCG,0.04 kcal/mol
3,TTCAGCACGTGGGGAA,-0.19 kcal/mol
4,GTAGACACGTGTGGAT,0.2 kcal/mol
5,AGGTACACGTGTTTTT,0.03 kcal/mol
6,GCTTACACGTGGAGGG,0.07 kcal/mol
7,ATGGACACGTGGTACT,0.01 kcal/mol
8,TCGTTCACGTGTCTGG,0.39 kcal/mol
9,TGTTGCACGTGTCGCA,-0.04 kcal/mol
10,AATCACACGTGGGGTA,-0.04 kcal/mol
11,GGGGTCACGTGTGGTG,0.22 kcal/mol
12,TCAGTCACGTGTTTTG,0.08 kcal/mol
13,ATTATCACGTGTGCGT,0.26 kcal/mol
14,GTTCCCACGTGTGGTT,0 kcal/mol
15,AGTGTCACGTGGAGCA,0.21 kcal/mol
16,CTTTGCACGTGTGTTA,0.02 kcal/mol
17,ATTTTCACGTGCGTTT,0.28 kcal/mol
18,ATTTTCACGTGGCAAT,0.37 kcal/mol
19,GCTTACACGTGGTTTG,0.08 kcal/mol
20,TTTTGCACGTGTCGTT,-0.02 kcal/mol
21,ACGGGCACGTGAGCGG,0.07 kcal/mol
22,CTGATCACGTGTTGGG,0.07 kcal/mol
23,TAGCGCACGTGGACGG,-0.02 kcal/mol

row,Sequence,relative binding free energy
1,TGTGTCACGTGTTTCG,0.09 kcal/mol
2,GTTAGCACGTGGGGAG,-0.14 kcal/mol
3,GGGAACACGTGGTGGA,0.04 kcal/mol
4,GGATACACGTGGTGAT,0.16 kcal/mol
5,AACGGCACGTGAGAGT,0.29 kcal/mol
6,GTTATCACGTGGGAAA,0.22 kcal/mol
7,TTTGTCACGTGTAAGT,0.2 kcal/mol
8,GGCGGCACGTGCGTAG,-0.13 kcal/mol
9,TATGCCACGTGTGTCT,0.01 kcal/mol
10,TGTAGCACGTGAGCGG,0.16 kcal/mol
11,ATTGACACGTGTACTT,0.21 kcal/mol
12,TTTCGCACGTGGGATT,-0.01 kcal/mol
13,TGTTCCACGTGGTAGA,0.06 kcal/mol
14,TAAGTCACGTGGCGGA,0.05 kcal/mol
15,ATTATCACGTGTATTA,0.06 kcal/mol
16,GTGATCACGTGATGCG,0.34 kcal/mol
17,TGAGTCACGTGTGCCG,0.15 kcal/mol
18,AGTATCACGTGTGTGA,0.31 kcal/mol
19,GGTATCACGTGCGAGG,0.23 kcal/mol
20,TGGGGCACGTGAGGAG,0.15 kcal/mol
21,TTTTGCACGTGAATAT,0.13 kcal/mol
22,ATGTTCACGTGAATAT,0.31 kcal/mol
23,GTAATCACGTGTTGCG,0.13 kcal/mol
